This passage reports Ki results from patent US7816326B2, “Sulfur compounds as inhibitors of hepatitis C virus NS3 serine protease” (Schering Corporation, priority 2004, dated 2010).

The Ki is the equilibrium dissociation constant of an inhibitor or competing ligand from its target.

Molecules are shown by their SMILES. Read-outs that look alike come from different tables or passages of the source.

For the assay, the target named is Recombinant heterodimeric HCV NS3/NS4A protease (strain 1a) (Hepatitis C virus genotype 1a, UniProt P27958). Briefly: Spectrophotometric assay for HCV protease inhibitory activity. It counts as biochemical. The source says:
The present invention relates to novel HCV protease inhibitors. This utility can be manifested in their ability to inhibit the HCV NS2/NS4a serine protease.
Assay for HCV Protease Inhibitory Activity:
Spectrophotometric Assay: Spectrophotometric assay for the HCV serine protease can be performed on the inventive compounds by following the procedure described by R. Zhang et al, Analytical Biochemistry, 270 (1999) 268-275, the disclosure of which is incorporated herein by reference. The assay based on the proteolysis of chromogenic ester substrates is suitable for the continuous monitoring of HCV NS3 protease activity. The substrates are derived from the P side of the NS5A-NS5B junction sequence (Ac-DTEDVVX(Nva), where X=A or P) whose C-terminal carboxyl groups are esterified with one of four different chromophoric alcohols (3- or 4-nitrophenol, 7-hydroxy-4-methyl-coumarin, or 4-phenylazophenol). Illustrated below are the synthesis, characterization and application of these novel spectrophotometric ester substrates to high throughput screening and detailed kinetic evaluation of HCV NS3 protease inhibitors. Materials and Methods: Materials: Chemical reagents for assay related buffers are obtained from Sigma Chemical Company (St. Louis, Mo.). Reagents for peptide synthesis were from Aldrich Chemicals, Novabiochem (San Diego, Calif.), Applied Biosystems (Foster City, Calif.) and Perseptive Biosystems (Framingham, Mass.). Peptides are synthesized manually or on an automated ABI model 431A synthesizer (from Applied Biosystems). UV/VIS Spectrometer model LAMBDA 12 was from Perkin Elmer (Norwalk, Conn.) and 96-well UV plates were obtained from Corning (Corning, N.Y.). The prewarming block can be from USA Scientific (Ocala, Fla.) and the 96-well plate vortexer is from Labline Instruments (Melrose Park, Ill.). A Spectramax Plus microtiter plate reader with monochrometer is obtained from Molecular Devices (Sunnyvale, Calif.). […] Protein concentrations are determined by the Biorad dye method using recombinant HCV protease standards previously quantified by amino acid analysis. Prior to assay initiation, the enzyme storage buffer (50 mM sodium phosphate pH 8.0, 300 mM NaCl, 10% glycerol, 0.05% lauryl maltoside and 10 mM DTT) is exchanged for the assay buffer (25 mM MOPS pH 6.5, 300 mM NaCl, 10% glycerol, 0.05% lauryl maltoside, 5 μM EDTA and 5 μM DTT) utilizing a Biorad Bio-Spin P-6 prepacked column. Substrate Synthesis and Purification: The synthesis of the substrates is done as reported by R. Zhang et al, (ibid.) and is initiated by anchoring Fmoc-Nva-OH to 2-chlorotrityl chloride resin using a standard protocol (K. Barlos et al, Int. J. Pept. Protein Res., 37 (1991), 513-520). The peptides are subsequently assembled, using Fmoc chemistry, either manually or on an automatic ABI model 431 peptide synthesizer. […] The combined filtrate and DCM wash is evaporated azeotropically (or repeatedly extracted by aqueous Na2CO3 solution) to remove the acid used in cleavage. The DCM phase is dried over Na2SO4 and evaporated.
The ester substrates are assembled using standard acid-alcohol coupling procedures (K. Holmber et al, Acta Chem. Scand., B33 (1979) 410-412). Peptide fragments are dissolved in anhydrous pyridine (30-60 mg/ml) to which 10 molar equivalents of chromophore and a catalytic amount (0.1 eq.) of para-toluenesulfonic acid (pTSA) were added. Dicyclohexylcarbodiimide (DCC, 3 eq.) is added to initiate the coupling reactions. Product formation is monitored by HPLC and can be found to be complete following 12-72 hour reaction at room temperature. Pyridine solvent is evaporated under vacuum and further removed by azeotropic evaporation with toluene.

Setting [1] is: HCV serine protease inhibitory activity ranges, read-out: Ki* Range.

In the case of `CN(C(C)(C)C1CC1)S(=O)(=O)CC1(NC(=O)N[C@H](C(=O)N2C[C@H]3[C@@H]([C@H]2C(=O)N[C@@H](CCC2CC2)C(=O)C(=O)NC2CC2)C3(C)C)C(C)(C)C)CCCCC1` [compound 1299], the Ki under setting [1] was less than 75 nM.
As for `CN(C1CCC1)S(=O)(=O)CC1(NC(=O)N[C@H](C(=O)N2C[C@H]3[C@@H]([C@H]2C(=O)N[C@@H](CCC2CC2)C(=O)C(=O)NC2CC2)C3(C)C)C(C)(C)C)CCCCC1` [compound 1385], the Ki under setting [1] is less than 75 nM.
For the molecule `CCN(C(C)C)S(=O)(=O)CC1(NC(=O)N[C@H](C(=O)N2C[C@H]3[C@@H]([C@H]2C(=O)N[C@@H](CCC2CC2)C(=O)C(=O)NC2CC2)C3(C)C)C2(C)CCCCC2)CCCCC1` [compound 1304], under setting [1], the Ki was less than 75 nM.
The same measure, in the same setting: the result for `CC(C)(C)[C@H](NC(=O)NC1([C@@H]2CCN(C3CC3)S2(=O)=O)CCCCC1)C(=O)N1C[C@H]2[C@@H]([C@H]1C(=O)N[C@@H](CCC1CC1)C(=O)C(=O)NC1CC1)C2(C)C` [compound 1216] reads less than 75 nM.
As for `C[C@@H](C1(NC(=O)N[C@H](C(=O)N2C[C@H]3[C@@H]([C@H]2C(=O)N[C@@H](CCC2CC2)C(=O)C(=O)NC2CC2)C3(C)C)C(C)(C)C)CCCCC1)S(=O)(=O)N(C)C` [compound 1402], the Ki under setting [1] is less than 75 nM.
Still for that read-out and setting: the result for `CCN(CC)S(=O)(=O)CC1(NC(=O)N[C@H](C(=O)N2C[C@H]3[C@@H]([C@H]2C(=O)N[C@@H](CCC2CC2)C(=O)C(=O)NC2CC2)C3(C)C)C2(C)CCCCC2)CCCCC1` [compound 1265] reads less than 75 nM; that for `CCN(C(C)C)S(=O)(=O)CC1(NC(=O)N[C@H](C(=O)N2C[C@H]3[C@@H]([C@H]2C(=O)N[C@@H](CC2CC2)C(=O)C(=O)NC2CC2)C3(C)C)C(C)(C)C)CCCCC1` [compound 1326], less than 75 nM.
For `CCC[C@H](NC(=O)[C@@H]1[C@@H]2[C@H](CN1C(=O)[C@@H](NC(=O)NC1(CS(=O)(=O)N(CC3CC3)C3CC3)CCCCC1)C1(C)CCCCC1)C2(C)C)C(=O)C(=O)NC1CC1` [compound 1377], the Ki under setting [1] is less than 75 nM.
On the same count and under the same terms, the same measure for `CN(C)S(=O)(=O)CC1(NC(=O)N[C@H](C(=O)N2C[C@H]3[C@@H]([C@H]2C(=O)N[C@@H](CCC2CC2)C(=O)C(=O)NC2CC2)C3(C)C)C2CCCCC2)CCCCC1` [compound 1240]: less than 75 nM; for `CON(C)S(=O)(=O)CC1(NC(=O)N[C@H](C(=O)N2C[C@H]3[C@@H]([C@H]2C(=O)N[C@@H](CCC2CC2)C(=O)C(=O)NC2CC2)C3(C)C)C(C)(C)C)CCCCC1` [compound 1222]: less than 75 nM; for `CCCC[C@H](NC(=O)[C@@H]1[C@@H]2[C@H](CN1C(=O)[C@@H](NC(=O)NC1(CS(=O)(=O)N(C)OC)CCCCC1)C(C)(C)C)C2(C)C)C(=O)C(=O)NC1CC1` [compound 1221]: less than 75 nM.
On to `CN(C1CC1)S(=O)(=O)CC1(NC(=O)N[C@H](C(=O)N2C[C@H]3[C@@H]([C@H]2C(=O)N[C@@H](CCC2CC2)C(=O)C(=O)NC2CC2)C3(C)C)C(C)(C)C)CCCCC1` [compound 1262], for which the Ki was 6 nM (HCV NS3/NS4A protease, chromogenic ester substrate, 30° C., pH 6.5, read-out: Ki*) and less than 75 nM under setting [1].
As for `CCN(C(C)(C)C)S(=O)(=O)CC1(NC(=O)N[C@H](C(=O)N2C[C@H]3[C@@H]([C@H]2C(=O)N[C@@H](CCC2CC2)C(=O)C(=O)NC2CC2)C3(C)C)C(C)(C)C)CCCCC1` [compound 1314], the Ki under setting [1] is less than 75 nM.
As for `CCC[C@H](NC(=O)[C@@H]1[C@@H]2[C@H](CN1C(=O)[C@@H](NC(=O)NC1(CS(=O)(=O)N(C)C(C)(C)CF)CCCCC1)C1(C)CCCCC1)C2(C)C)C(=O)C(=O)NC1CC1` [compound 1368], the inhibitory constant (Ki) under setting [1] was less than 75 nM.
Turning to `CCCC[C@H](NC(=O)[C@@H]1[C@@H]2[C@H](CN1C(=O)[C@@H](NC(=O)NC1([C@H]3CCN(C)S3(=O)=O)CCCCC1)C(C)(C)C)C2(C)C)C(=O)C(=O)NC1CC1` [compound 1204], the Ki under setting [1] was less than 75 nM.
Turning to `CC1([C@H](NC(=O)NC2(CS(=O)(=O)N3CCOCC3)CCCCC2)C(=O)N2C[C@H]3[C@@H]([C@H]2C(=O)N[C@@H](CC2CC2)C(=O)C(=O)NC2CC2)C3(C)C)CCCCC1` [compound 1373], the inhibition constant Ki under setting [1] is less than 75 nM.
As for `CCCC[C@H](NC(=O)[C@@H]1[C@@H]2[C@H](CN1C(=O)[C@@H](NC(=O)NC1(CS(=O)(=O)N(CC)C(C)C)CCCCC1)C1(C)CCCCC1)C2(C)C)C(=O)C(=O)NC1CC1` [compound 1303], the Ki under setting [1] was less than 75 nM.
As to `C#CCC[C@H](NC(=O)[C@@H]1[C@@H]2[C@H](CN1C(=O)[C@@H](NC(=O)NC1(CS(=O)(=O)N(C)C3CC3)CCCCC1)C(C)(C)C)C2(C)C)C(=O)C(=O)NC1CC1` [compound 1379], the Ki under setting [1] was less than 75 nM.
Take `C[C@H](C1(NC(=O)N[C@H](C(=O)N2C[C@H]3[C@@H]([C@H]2C(=O)N[C@@H](CCC2CC2)C(=O)C(=O)NC2CC2)C3(C)C)C(C)(C)C)CCCCC1)S(=O)(=O)N(C)C` [compound 1398]: the inhibition constant (Ki) under setting [1] was less than 75 nM.
For `CCN(CC)S(=O)(=O)CC1(NC(=O)N[C@H](C(=O)N2C[C@H]3[C@@H]([C@H]2C(=O)N[C@@H](CC2CC2)C(=O)C(=O)NC2CC2)C3(C)C)C(C)(C)C)CCCCC1` [compound 1259], the Ki under setting [1] was less than 75 nM.
Same read-out and setting: the result for `CN(C(C)(C)C(F)(F)F)S(=O)(=O)CC1(NC(=O)N[C@H](C(=O)N2C[C@H]3[C@@H]([C@H]2C(=O)N[C@@H](CC2CC2)C(=O)C(=O)NC2CC2)C3(C)C)C2(C)CCCCC2)CCCCC1` [compound 1365] reads less than 75 nM; that for `CCC[C@H](NC(=O)[C@@H]1[C@@H]2[C@H](CN1C(=O)[C@@H](NC(=O)NC1(CS(=O)(=O)N(C)C)CCCCC1)C1(C)CCCCC1)C2(C)C)C(=O)C(=O)NC1CC1` [compound 1238], less than 75 nM.
For `CCCC[C@H](NC(=O)[C@@H]1[C@@H]2[C@H](CN1C(=O)[C@@H](NC(=O)NC1(CS(=O)(=O)N(CC)CC)CCCCC1)C1(C)CCCCC1)C2(C)C)C(=O)C(=O)NC1CC1` [compound 1264], under setting [1], the Ki was less than 75 nM.
As to `CCN(C)S(=O)(=O)CC1(NC(=O)N[C@H](C(=O)N2C[C@H]3[C@@H]([C@H]2C(=O)N[C@@H](CCC2CC2)C(=O)C(=O)NC2CC2)C3(C)C)C2(C)CCCCC2)CCCCC1` [compound 1291], under setting [1], the inhibition constant (Ki) is less than 75 nM.
Turning to `CCCC[C@H](NC(=O)[C@@H]1[C@@H]2[C@H](CN1C(=O)[C@@H](NC(=O)NC1(CS(=O)(=O)N(C)C(C)(C)C)CCCCC1)C1(C)CCCCC1)C2(C)C)C(=O)C(=O)NC1CC1` [compound 1276], under setting [1], the Ki is less than 75 nM.
As for `CCC[C@H](NC(=O)[C@@H]1[C@@H]2[C@H](CN1C(=O)[C@@H](NC(=O)NC1(CS(=O)(=O)N(C)OC)CCCCC1)C1(C)CCCCC1)C2(C)C)C(=O)C(=O)NC1CC1` [compound 1233], the Ki under setting [1] was less than 75 nM.
`CC(C)(C)[C@H](NC(=O)NC1(CS(=O)(=O)N2CCC2)CCCCC1)C(=O)N1C[C@H]2[C@@H]([C@H]1C(=O)N[C@@H](CCC1CC1)C(=O)C(=O)NC1CC1)C2(C)C` [compound 1340]: the Ki under setting [1] is less than 75 nM.
Same read-out and setting: the result for `CCC[C@H](NC(=O)[C@@H]1[C@@H]2[C@H](CN1C(=O)[C@@H](NC(=O)NC1(CS(=O)(=O)N(C(C)C)C(C)C)CCCCC1)C(C)(C)C)C2(C)C)C(=O)C(=O)NC1CC1` [compound 1345] reads less than 75 nM.
As to `CCC[C@H](NC(=O)[C@@H]1[C@@H]2[C@H](CN1C(=O)[C@@H](NC(=O)NC1(CS(=O)(=O)N(C)CC(F)(F)F)CCCCC1)C1(C)CCCCC1)C2(C)C)C(=O)C(=O)NC1CC1` [compound 1322], the Ki under setting [1] was less than 75 nM.
